The record followed here is patent US20190241962A1, “GENETIC SUSCEPTIBILITY DIAGNOSIS AND TREATMENT OF MENTAL DISORDERS” (priority 2016, published 2019).

This experiment relates to CB1 receptor knockout C57Bl/6J mice. The experiment can be described thus: Open-field test, ambulation behavior, CB1 receptor knockout mice. It counts as in vivo. The conditions noted are these: CB1 receptor knockout female mice.

Take `C=C1CC/C=C(\C)CC[C@@H]2[C@@H]1CC2(C)C` [BCP, beta-caryophyllene]: the ambulation behavior result (BCP 10 mg/kg one hour after PCP) is “did NOT reverse this behavior”.

Consider `c1ccc(C2(N3CCCCC3)CCCCC2)cc1` [PCP, Phencyclidine], for which the ambulation behavior entry (PCP 5 mg/kg vs control group) is on record as “significantly elevated”.
